Measurements from PubChem BioAssay AID624418 (National Center for Advancing Translational Sciences (NCATS), 2012).
Out of some 410,000 compounds screened, about 530 (0.13%) were called active. Inconclusive results, whose numbers are uncertain, are shown with a selection of clear calls. Calls follow the shape of the dose curve; as a rule, active = well fitted inhibition curve with a large enough effect; inconclusive = small, poorly fitted or top-dose-only effect, or another doubt; inactive = no such curve, though single readings can be large or run the other way. A potency beside an inconclusive call is a rough fit, not a confirmed value.

assay: qHTS of GLP-1 Receptor Inverse Agonists: Cytotox Screen; conditions: HEK293 cAMP-luciferase reporter cells, luminescence, 24 h; activity change, negative = inhibition: at 38.3 µM (top of the series) unless noted
In short: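 Cells in DMEM/10% Nu serum/1% pen-strep, 1536-well format. Pre-incubated 12 h, dosed with 23 nL compound, incubated a further 24 h. Luciferase detection, 12 min at room temp, luminescence.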
% is scaled to controls: 0 for no effect and ±100 for the full control effect; potency is read from the fitted curve at half-maximal effect.

With `Fc1ccccc1-c1csc(=Nc2cccnc2)n1CCCn1ccnc1` as the compound, how does the Potency read?
Its Potency is “inactive”.

With `CCOC(=O)N1CCC(NC(=O)c2cnn(-c3ccc(C)cc3)c2C2CCN(C(=O)OC(C)(C)C)CC2)CC1` as the compound, how does the Potency read?
The Potency was “inactive”.

Which Potency does the source give for `N#C/C(=C\c1ccc(N2CCCCC2)o1)C(=O)Nc1cccc(Br)c1` here?
The Potency was inconclusive: 11.2 µM [inhibitor, single point].

For `NC(=S)N/N=C1\CCOc2ccc(F)cc21`, which Potency is on record?
The Potency was inconclusive: 12.6 µM [inhibitor, single point].

Which Potency does the source give for `CCOc1ccccc1NC(=O)CCCCCN1C(=O)[C@@H]2Cc3ccccc3CN2C1=O` here?
Its Potency is inconclusive: 12.6 µM [inhibitor, single point].

For `CC(C)(C)C(=O)Nc1ccc2nc(SCCOc3ccccc3Cl)sc2c1`, which Potency is on record?
The Potency was “inactive”.

With `Oc1cccc(Nc2cc(-c3ccccc3)ncn2)c1` as the compound, how does the Potency read?
Its Potency is “inactive”.

Which activity change, negative = inhibition does the source give for `O=C(CNC(=O)c1ccccc1F)N/N=C/c1cccnc1` here?
The activity change, negative = inhibition was inconclusive: -30.2% [inhibitor].

For `COc1cccc(O)c1CN1CCC(Oc2ccc(C(=O)NCc3ccccn3)cc2)CC1`, which Potency is on record?
Its Potency is inconclusive: 2 µM [inhibitor, full curve].

For `COCCN(C(=O)COC(=O)c1cc2c(s1)CCC2)c1c(N)n(Cc2ccccc2)c(=O)[nH]c1=O`, which Potency is on record?
Its Potency is “inactive”.

Which Potency does the source give for `CN(C)CCCN(C(=O)c1cccs1)c1nc2ccc(F)cc2s1` here?
Its Potency is inconclusive: 3.16 µM [inhibitor, full curve].

With `CN(Cc1ccccc1)S(=O)(=O)c1ccc(NC(=S)NC(=O)C2CCCCC2)cc1` as the compound, how does the Potency read?
Its Potency is “inactive”.

Which Potency does the source give for `CN(Cc1ccccc1)c1nc(N)nc(Cl)c1C=O` here?
The Potency was inconclusive: 22.4 µM [inhibitor, single point].

For `C=CCSc1nnc(NC(=O)c2ccc(N3CCCC3=O)cc2)s1`, which Potency is on record?
Its Potency is inconclusive: 28.2 µM [inhibitor, single point].

For `CCN(CC)S(=O)(=O)c1ccc(C(=O)Nc2nc3c(Cl)cc(Cl)cc3s2)cc1`, which Potency is on record?
Its Potency is “inactive”.

With `NS(=O)(=O)c1ccc(NNC(=O)c2ccccc2)cc1` as the compound, how does the Potency read?
The Potency was inconclusive: 2 µM [inhibitor, full curve, poor fit].

With `COc1ccc(F)cc1-c1cc(C(=O)NCc2ccccc2)[nH]n1` as the compound, how does the Potency read?
The Potency was “inactive”.

For `Cn1cccc1/C=C(/C#N)C(N)=S`, which Potency is on record?
The Potency was inconclusive: 28.2 µM [inhibitor, single point].

For `CS(=O)(=O)NCCSc1cc(C(F)(F)F)nc2ccccc12`, which Potency is on record?
Its Potency is inconclusive: 28.2 µM [inhibitor, single point].

For `Cc1ccccc1NC(=O)/C(C#N)=C\c1cc(C)n(-c2ccc(C(=O)O)cc2)c1C`, which Potency is on record?
The Potency was inconclusive: 6.31 µM [inhibitor, partial curve, poor fit].

With `COc1ccc(Nc2ccc(N3C(=O)CCCC3=O)cc2[N+](=O)[O-])cc1OC` as the compound, how does the Potency read?
The Potency was inconclusive: 28.2 µM [inhibitor, single point].

With `Cc1cccc(NC(=S)N(CCN2CCOCC2)Cc2ccccc2F)c1` as the compound, how does the Potency read?
Its Potency is inconclusive: 28.2 µM [inhibitor, single point].

With `O=C(NNC(=S)NC(=O)c1ccc(Br)cc1)c1cccc([N+](=O)[O-])c1` as the compound, how does the Potency read?
Its Potency is “inactive”.

With `Cc1ccc(N2CC(NC(=O)c3ccc(S(=O)(=O)N4CCOCC4)cc3)CC2=O)cc1C` (stereo not given) as the compound, how does the Potency read?
The Potency was “inactive”.

Which Potency does the source give for `CCn1ccnc1CN1CCCC(C(=O)c2ccc3c4c(cccc24)CC3)C1` (stereo not given) here?
Its Potency is inconclusive: 12.6 µM [inhibitor, partial curve, poor fit].

Which activity change, negative = inhibition does the source give for `COc1ccc(CCC(=O)Nc2ccc(S(=O)(=O)N3CCCC3)cc2)cc1OC` here?
The activity change, negative = inhibition was inconclusive: -30.8% [inhibitor].

Which Potency does the source give for `COc1ccc(NS(=O)(=O)c2cc(Br)cc3c2N(C(C)=O)CC3)cc1` here?
The Potency was inconclusive: 3.16 µM [inhibitor, partial curve, poor fit].

Which Potency does the source give for `CCOc1ccccc1Nc1nnc(SCc2nnc(-c3cc(OC)c(OC)c(OC)c3)o2)s1` here?
Its Potency is inconclusive: 11.2 µM [inhibitor, single point].

With `O=C(CCCN1C(=O)/C(=C/c2ccccc2Cl)SC1=S)NNC(=O)c1ccccc1Cl` as the compound, how does the Potency read?
The Potency was inconclusive: 28.2 µM [inhibitor, single point].

With `COc1ccc(/C=C/C(=O)c2ccccc2)cc1Cn1nnc2ccccc21` as the compound, how does the Potency read?
Its Potency is inconclusive: 22.4 µM [inhibitor, single point].

For `COc1ccc(N2CCN(Cc3cc(=O)oc4cc5c(cc34)CCCC5)CC2)cc1`, which Potency is on record?
The Potency was “inactive”.

Which Potency does the source give for `Cc1cccc(C(=O)N2CCN(c3ccc([N+](=O)[O-])c(N4CCOCC4)c3)CC2)c1` here?
Its Potency is inconclusive: 17.8 µM [inhibitor, partial curve, poor fit].

With `Cc1nn(C(C)(C)C)c(OC(=O)c2cccs2)c1S(=O)(=O)c1ccccc1` as the compound, how does the Potency read?
Its Potency is inconclusive: 11.2 µM [inhibitor, partial curve].

With `N#C/C(=C(/O)c1ccc(Cl)c([N+](=O)[O-])c1)c1nc2ccccc2[nH]1` as the compound, how does the Potency read?
The Potency was inconclusive: 2.51 µM [inhibitor, full curve].

With `Oc1ccccc1NCC(O)Cn1ccc2ccccc21` (stereo not given) as the compound, how does the Potency read?
Its Potency is inconclusive: 11.2 µM [inhibitor, single point].

Which Potency does the source give for `O=C(NCCc1ccc(Cl)cc1)c1ccc(Cn2c(=O)c3cccn3c3cccnc32)cc1` here?
Its Potency is “inactive”.

Which Potency does the source give for `COc1ccc(/C=N/NC(=O)c2cccnc2)cc1COc1ccc([N+](=O)[O-])c(C)c1` here?
The Potency was inconclusive: 2.51 µM [inhibitor, full curve].

With `CCN1C/C(=C\c2cccc([N+](=O)[O-])c2)C(=O)/C(=C/c2cccc([N+](=O)[O-])c2)C1` as the compound, how does the Potency read?
The Potency was active: 5.01 µM.

For `CSC(=NC#N)N1CCN(c2ccc([N+](=O)[O-])cc2)CC1`, which Potency is on record?
Its Potency is inconclusive: 7.94 µM [inhibitor, partial curve, poor fit].

Which Potency does the source give for `CN(C)S(=O)(=O)c1ccc(C(=O)OCC(=O)NC(=O)NCc2ccccc2)cc1` here?
Its Potency is inconclusive: 28.2 µM [inhibitor, single point].

With `CCOC(=O)C1(Cc2ccccc2)CCN(Cc2cnn(-c3ccccc3)c2)CC1` as the compound, how does the Potency read?
The Potency was inconclusive: 28.2 µM [inhibitor, single point].

With `COc1cc(N/C(N)=N/c2nc(C)cc(C)n2)cc(OC)c1` as the compound, how does the Potency read?
The Potency was “inactive”.

Which Potency does the source give for `CC(C)C[C@H]1CN=C(Nc2ccccc2)N1CCCC1CCCCC1` here?
The Potency was inconclusive: 14.1 µM [inhibitor, single point].

For `COc1cc(/C=C/C(=O)OCC(=O)NCc2ccc(F)cc2)ccc1O`, which Potency is on record?
The Potency was inconclusive: 10 µM [inhibitor, partial curve, poor fit].

Which Potency does the source give for `Cn1c(-c2ccccc2)cnc1NCc1ccc(-c2ccccc2)cc1` here?
The Potency was inconclusive: 28.2 µM [inhibitor, single point].

For `COC(=O)CNC(c1ccccc1)c1cc(Br)ccc1NC(=O)CNC(=O)OCc1ccccc1` (stereo not given), which Potency is on record?
Its Potency is inconclusive: 31.6 µM [inhibitor, single point].

Which Potency does the source give for `CC(C)(C)c1nnc(NC(=S)Nc2ccccc2)s1` here?
The Potency was inconclusive: 1.41 µM [inhibitor, full curve, poor fit].

Which Potency does the source give for `CCc1ccc(NC(=S)N2CCC(NC(=O)c3ccccc3OC)CC2)cc1` here?
The Potency was inconclusive: 12.6 µM [inhibitor, single point].

With `CC(=O)OC(C)(C)/C=C/C(=O)[C@](C)(O)C1[C@H](O)C[C@@]2(C)C3CC=C4C(C=C(O[C@@H]5O[C@H](CO)[C@@H](O)[C@H](O)[C@H]5O)C(=O)C4(C)C)[C@]3(C)C(=O)C[C@]12C` (stereo not given in full) as the compound, how does the Potency read?
The Potency was inconclusive: 11.2 µM [inhibitor, partial curve, poor fit].

For `COc1ccc(OC)c(NC(=O)C2CCC(CNc3c(N4CCC(C)CC4)c(=O)c3=O)CC2)c1` (stereo not given), which Potency is on record?
Its Potency is “inactive”.

Which Potency does the source give for `Cc1cc(C)c2sc(N(CCCN(C)C)C(=O)c3ccc(S(=O)(=O)N(C)C4CCCCC4)cc3)nc2c1` here?
The Potency was inconclusive: 15.8 µM [inhibitor, single point].

Which Potency does the source give for `Cc1ccc(S(=O)(=O)Cc2cc(F)c([N+](=O)[O-])cc2[N+](=O)[O-])cc1` here?
Its Potency is inconclusive: 25.1 µM [inhibitor, single point].

For `CNc1ccccc1C(=O)OC(C)C(=O)Nc1ccc(Cl)cn1` (stereo not given), which Potency is on record?
The Potency was inconclusive: 20 µM [inhibitor, single point].

Which Potency does the source give for `CC(NC(=S)NCc1ccc(F)cc1)C12CC3CC(CC(C3)C1)C2` (stereo not given) here?
The Potency was inconclusive: 8.91 µM [inhibitor, partial curve, poor fit].

For `CC1Cc2cc(S(=O)(=O)NCCC(=O)NCc3ccc(F)cc3)ccc2N1C(=O)C1CC1` (stereo not given), which Potency is on record?
Its Potency is inconclusive: 14.1 µM [inhibitor, single point].

With `COc1ccc(CN(C(=O)/C=C/C(=O)c2ccc(OC)cc2O)C(C(=O)NC2CCCCC2)c2ccncc2)cc1` (stereo not given) as the compound, how does the Potency read?
The Potency was “inactive”.

Which Potency does the source give for `C[n+]1ccccc1/C=C1\Sc2ccccc2N1CCO` here?
Its Potency is inconclusive: 3.98 µM [inhibitor, single point].

With `CCCNc1ncnc2onc(C)c12` as the compound, how does the Potency read?
The Potency was inconclusive: 31.6 µM [inhibitor, single point].

For `CCCOc1ccc(CCC(=O)N/N=C/c2ccncc2)cc1`, which Potency is on record?
Its Potency is inconclusive: 17.8 µM [inhibitor, partial curve, poor fit].

For `CCOc1ccc(NC(=O)CSc2nnc(-c3ccccc3Cl)n2Cc2ccco2)cc1`, which Potency is on record?
The Potency was “inactive”.

With `CC(C)c1cnc2c(c1SCC(=O)Nc1ccccc1C(F)(F)F)c(=O)n(C)c(=O)n2C` as the compound, how does the Potency read?
Its Potency is “inactive”.

Which Potency does the source give for `CCN(CC)C1=NS(=O)(=O)c2cc([N+](=O)[O-])ccc21` here?
The Potency was “inactive”.

For `O=C1C(Nc2ccc(O)cc2)=C/C(=N/S(=O)(=O)c2cccs2)c2ccccc21`, which Potency is on record?
The Potency was inconclusive: 4.47 µM [inhibitor, partial curve].

For `CCn1nc(C)c(/C=N/NC(=O)c2ccoc2C)c1C`, which Potency is on record?
The Potency was “inactive”.

Which Potency does the source give for `CCOC(=O)C/C(=N\Nc1ncnc2ccccc12)c1ccccc1` here?
Its Potency is inconclusive: 10 µM [inhibitor, single point].
